Results published in the BET-seq Pho4 binding data (Le et al. 2018).
This is one part of the list. The energies were worked out here from pooled read counts, against the library average; single values are noisy.

Molecular target: T1, Pho4 (S. cerevisiae) (UniProt P07270)
T1 sequence: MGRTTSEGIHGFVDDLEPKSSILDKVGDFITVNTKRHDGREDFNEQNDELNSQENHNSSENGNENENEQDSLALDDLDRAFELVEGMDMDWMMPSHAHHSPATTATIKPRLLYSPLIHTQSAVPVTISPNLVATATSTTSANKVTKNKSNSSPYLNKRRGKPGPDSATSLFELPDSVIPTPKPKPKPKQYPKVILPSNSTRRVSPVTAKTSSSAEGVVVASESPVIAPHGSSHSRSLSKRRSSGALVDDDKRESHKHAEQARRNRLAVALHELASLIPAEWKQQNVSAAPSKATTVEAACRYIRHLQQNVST
Assay: relative binding free energy (BET-seq); higher = weaker binding
Conditions: reference: library average

Sequence	relative binding free energy
AGATACACGTGTAGTG	0.01 kcal/mol
TGCCGCACGTGGAGGT	0.03 kcal/mol
CAAGGCACGTGAAGGT	0.1 kcal/mol
GTGGGCACGTGAAGCG	0.25 kcal/mol
TGCCGCACGTGAAGGG	0.12 kcal/mol
GCGTTCACGTGAGGGA	0.38 kcal/mol
GTGTGCACGTGCTATA	-0.07 kcal/mol
TTTGTCACGTGAGCTA	0.22 kcal/mol
TGCAGCACGTGATTTT	0.06 kcal/mol
TGCGTCACGTGTGGCT	0.18 kcal/mol
ACGTGCACGTGTGGCT	-0.11 kcal/mol
GTATACACGTGATTTT	0.19 kcal/mol
TGGTGCACGTGGCTGC	-0.18 kcal/mol
TTAATCACGTGGAGAT	0.14 kcal/mol
TATTACACGTGAATGG	0.46 kcal/mol
CTGGTCACGTGGGGAC	-0.04 kcal/mol
ATAGTCACGTGATCTT	0.15 kcal/mol
AGGATCACGTGAAGGA	0.26 kcal/mol
ACTTGCACGTGTGTTT	0.04 kcal/mol
GTGGTCACGTGGTAAA	-0.11 kcal/mol
TTAGGCACGTGCTTTG	-0.19 kcal/mol
CGAGACACGTGGGGGG	-0.15 kcal/mol
TACATCACGTGTGTAT	0.04 kcal/mol

Sequence	relative binding free energy
GTTAGCACGTGCTAGG	-0.14 kcal/mol
TGGATCACGTGGGCGA	-0.07 kcal/mol
CGTTGCACGTGGGGGC	-0.06 kcal/mol
ATAGGCACGTGAGCAG	-0.02 kcal/mol
GTTAACACGTGGGGTT	-0.05 kcal/mol
TTTTCCACGTGGCAGG	-0.04 kcal/mol
GTGCACACGTGGGGTT	0.02 kcal/mol
AGGGCCACGTGGGGAC	-0.21 kcal/mol
AGGGCCACGTGAGTTT	0.04 kcal/mol
ACAGTCACGTGTTGTG	0.11 kcal/mol
TAGGGCACGTGCTAAG	-0.14 kcal/mol
AGAGGCACGTGGCGGA	-0.16 kcal/mol
TCGGGCACGTGTTGTT	-0.05 kcal/mol
AGTGGCACGTGCAGTA	-0.11 kcal/mol
TGCAGCACGTGTTTAA	-0.12 kcal/mol
TTCGTCACGTGTTGCG	0.13 kcal/mol
CTATGCACGTGATGGA	0.12 kcal/mol
TTAGGCACGTGGTCTA	-0.23 kcal/mol
TTGGTCACGTGAGGGA	0.28 kcal/mol
GGTTGCACGTGTTGGT	0.09 kcal/mol
GTCGGCACGTGTCATG	0.09 kcal/mol
TGGTGCACGTGAGGCC	0.18 kcal/mol
GTCTTCACGTGCGTGG	0.05 kcal/mol

Sequence	relative binding free energy
GTGGCCACGTGTGGTG	-0.03 kcal/mol
TATCGCACGTGTTGTG	-0.21 kcal/mol
ACTGCCACGTGGGGGT	-0.32 kcal/mol
TTTCACACGTGGGATA	-0.02 kcal/mol
ATTTACACGTGTTAAT	0.13 kcal/mol
CGATACACGTGGGAGT	-0.05 kcal/mol
ATATGCACGTGGGGAT	-0.07 kcal/mol
TAAGACACGTGCGGTG	-0.09 kcal/mol
CGGTTCACGTGCGGCT	0.36 kcal/mol
GAGGGCACGTGTATTA	-0.07 kcal/mol
TTAATCACGTGGTGTG	0.13 kcal/mol
ATTTACACGTGTGTCG	0.16 kcal/mol
TGGGACACGTGTGCAG	-0.11 kcal/mol
CATATCACGTGGGAGG	0.12 kcal/mol
TGGACCACGTGTTGTG	-0.15 kcal/mol
AAAGGCACGTGTGGTA	0.01 kcal/mol
TAAAGCACGTGTAGGG	-0.15 kcal/mol
AGATGCACGTGGAGCG	0.12 kcal/mol
CGAGGCACGTGAGGTT	0.2 kcal/mol
AGGGTCACGTGGAGCG	0.1 kcal/mol
TAGATCACGTGAGAAT	0.57 kcal/mol
TGACTCACGTGATGGG	0.23 kcal/mol
GGTGGCACGTGTAGGG	0.03 kcal/mol

Sequence	relative binding free energy
TAGTGCACGTGGGGGA	-0.25 kcal/mol
CACATCACGTGGGGTG	0.06 kcal/mol
TGTGCCACGTGTATTA	-0.12 kcal/mol
AACGACACGTGGTGGG	-0.04 kcal/mol
TGTCTCACGTGATAAT	0.28 kcal/mol
GTAGGCACGTGATTCG	0 kcal/mol
GTAGTCACGTGTTGCT	0.02 kcal/mol
GTCTACACGTGTGAGG	0.2 kcal/mol
CTTTTCACGTGTAGGT	0.15 kcal/mol
ATAGTCACGTGGAGAG	0.14 kcal/mol
ATTGTCACGTGTCATT	0.05 kcal/mol
AGTAGCACGTGTGGCT	-0.15 kcal/mol
GGTTTCACGTGTGCGG	0.42 kcal/mol
GGAGTCACGTGAAGAA	0.56 kcal/mol
GTGCGCACGTGAGTTA	0.1 kcal/mol
AGCTTCACGTGGGTTA	0.19 kcal/mol
TGATCCACGTGGCGGT	-0.02 kcal/mol
GTGGTCACGTGTGTGG	0.19 kcal/mol
GATGACACGTGTAGTG	0.16 kcal/mol
CAAGGCACGTGTCGGG	-0.04 kcal/mol
ATGGGCACGTGGCGAC	-0.12 kcal/mol
GAGAGCACGTGTTAGG	-0.11 kcal/mol
TAGTACACGTGTCTTT	0.07 kcal/mol

Sequence	relative binding free energy
AGAGACACGTGTGTTG	0 kcal/mol
GTTGACACGTGAACGG	0.31 kcal/mol
TGTCTCACGTGGGGCT	0.09 kcal/mol
CGGTGCACGTGATCGG	-0.08 kcal/mol
ATGTGCACGTGGAGCT	-0.01 kcal/mol
AGTTCCACGTGGGGCG	-0.21 kcal/mol
GAGGTCACGTGCTGAG	0.23 kcal/mol
AGGTGCACGTGACTTG	0.05 kcal/mol
TGTGGCACGTGTTTCA	-0.04 kcal/mol
ATCATCACGTGGTATT	0.05 kcal/mol
GATAGCACGTGGTGTC	-0.01 kcal/mol
TAGGGCACGTGGCCGT	-0.31 kcal/mol
AAAGTCACGTGGCGTG	-0.05 kcal/mol
GTACACACGTGAGGTT	0.23 kcal/mol
TCGGCCACGTGTTGGG	-0.09 kcal/mol
TTACTCACGTGGCAGG	0.16 kcal/mol
GTCTACACGTGAATGG	0.28 kcal/mol
TTCTTCACGTGTTTAA	0.15 kcal/mol
GCGTGCACGTGTGGTT	0.08 kcal/mol
TGCTGCACGTGGGCTT	-0.18 kcal/mol
ACTTGCACGTGCGGGT	-0.05 kcal/mol
TATTTCACGTGTAGGT	0.25 kcal/mol
ACCGTCACGTGGGGGG	-0.07 kcal/mol
